# Experimental data from PubChem BioAssay AID1745845 (National Center for Advancing Translational Sciences (NCATS), 2022).
# Where “and” joins values, the source holds several entries; their conditions need not be identical. Equal values may be shown once. Hit rate of the full screen: of about 360,000 compounds, about 2,600 (0.72%) were called active. Inconclusive means that the source gave no clear call. Such entries were picked first, then a sample of the others. Calls follow the shape of the dose curve; as a rule, active = well fitted inhibition curve with a large enough effect; inconclusive = small, poorly fitted or top-dose-only effect; inactive = no such curve, though single readings can be large or run the other way. Where the call is inconclusive, the potency comes from a doubtful curve fit.
# Assay: Primary qHTS for Inhibitors of ATXN expression; also: nearly all actives have a fitted effect of over 55% in size
# Settings: HEK-293 ATXN2-luciferase reporter, luminescence, 24 h; activity change, negative = inhibition: at 57 µM (top of the series)
# Method in brief: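 ATXN2-luciferase reporter cells (luciferase flanked by upstream and downstream ATXN2 gene portions) were treated 24 h at 37 °C with compounds at up to 57 uM. SteadyGlo luminescence gave expression; GF-AFC fluorescence gave viability.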
# % is scaled to controls: 0 for no effect and ±100 for the full control effect; potency is read from the fitted curve at half-maximal effect; tags tell the direction and shape of the fitted curve.
SMILES,Potency,"activity change, negative = inhibition"
O=C(C1=C[C@@H](c2ccc(Br)cc2)C[C@@H](OCCCCO)O1)N1CCN(Cc2ccc3c(c2)OCO3)CC1,"inconclusive: 39.8 µM [inhibitor, single point]",–
COc1ccc(OC)c(-c2csc(NC(=O)CN3C(=O)C4CCCCC4C3=O)n2)c1 (centres undefined),inactive,–
COc1cccc(Cn2c(SCC(=O)N(C)c3ccccc3)nc3ccccc32)c1,"inconclusive: 12.6 µM [inhibitor, partial curve, poor fit]",–
Cc1ccc(N/C(N)=N/c2nc(C)cc(N3CCCCC3)n2)c(C)c1,active: 22.4 µM,–
O=C(Cc1ccc(Br)cc1)Nc1nc2ccccc2[nH]1,inactive,–
COc1ccccc1/C=C/C(=O)OCC(=O)N1CCc2ccccc21,inactive,–
O=C(NCC1CC1)c1ccc2c(c1)S(=O)(=O)c1cc(Cl)ccc1C2=O,"inconclusive: 35.5 µM [inhibitor, single point]",–
CCCC/C(C)=N/NC(=O)c1cn(-c2ccccc2)nc1-c1ccccc1,"inconclusive: 39.8 µM [inhibitor, single point]",–
CCc1ccc(OC)c(S(=O)(=O)Nc2ccc(Cc3ccncc3)cc2)c1,inactive,–
O=C(Nc1ccc(C(F)(F)F)cc1)C1CCN(c2cnccn2)CC1,"inconclusive: 22.4 µM [inhibitor, single point]",–
COC(=O)[C@@]1(Cc2ccc(F)cc2)[C@H]2c3cc(C(=O)N(C)C)n(Cc4ccc(Cl)c(C(F)(F)F)c4)c3C[C@H]2CN1C(=O)c1ccccc1,"inconclusive: 39.8 µM [inhibitor, single point]",–
CCCCC(O)(CCCC)C(=O)NN(C(=O)CCl)c1ccccc1,inactive,–
CCS(=O)(=O)N1CCN(Cc2c[nH]c3ccccc23)CC1,inactive,–
CCOC(=O)N1CCC(=C2c3ccc(Cl)cc3CCc3cccnc32)CC1,"inconclusive: 34.3 µM [inhibitor, single point] and active: 14.1 µM and inconclusive: 20 µM [inhibitor, single point]",–
CCn1c(CCNC(=O)c2ccc(Cl)c(Cl)c2)nnc1SCCOc1ccc(OC)cc1,"inconclusive: 25.1 µM [inhibitor, partial curve, poor fit]",–
Cc1cc(O)c(-c2cc(C(=O)Nc3ccc(S(=O)(=O)N4CCOCC4)cc3)[nH]n2)cc1C,"inconclusive: 17.8 µM [inhibitor, partial curve]",–
Cn1c(-[n+]2c(-c3ccccc3)cc(-c3ccccc3)cc2-c2ccccc2)nc2c([N+](=O)[O-])cccc21,"inconclusive: 18.9 µM [inhibitor, partial curve, poor fit]",–
Cc1cc(C)n(CCC(=O)N/N=C/c2ccccc2O)n1,"inconclusive: 31.6 µM [inhibitor, single point]",–
Cc1ccc(-c2nc(C(=O)NCC3CCCO3)cc3c2[nH]c2ccccc23)cc1 (centres undefined),"inconclusive: 15.8 µM [inhibitor, partial curve]",–
COc1cccc(NC(=O)Cc2c(O)c3ccccc3[nH]c2=O)c1,inactive,–

SMILES,Potency,"activity change, negative = inhibition"
O=C(Cn1c(=O)n(Cc2ccco2)c(=O)c2ccccc21)Nc1cccc(Cl)c1,"inconclusive: 39.8 µM [inhibitor, single point]",–
CC1(C)CC(=O)C(N=Nc2ccc(C(F)(F)F)cc2[N+](=O)[O-])=C(O)C1,"inconclusive: 0.794 µM [inhibitor, full curve, poor fit]",–
O=C(OCC(=O)N1CCN(C(=O)c2ccco2)CC1)c1cc(-c2ccc(F)cc2)nc2ccccc12,"inconclusive: 35.5 µM [inhibitor, partial curve, poor fit]",–
CCCCCCSc1cc(-c2nc3cc(C)ccn3c2NCCCC)ccc1OC,"inconclusive: 35.5 µM [inhibitor, single point] and inconclusive: 39.8 µM [inhibitor, single point]",–
O=C(C=Cc1ccccn1)c1ccccc1,"inconclusive: 39.8 µM [inhibitor, single point]",–
Cc1cc(NCc2ccccn2)n2nc(C)c(-c3ccccc3)c2n1,"inconclusive: 1.41 µM [inhibitor, full curve, poor fit]",–
Cc1nc2c(OCc3cccc(Cl)c3)cccn2c1N(C)CC1CC1,"inconclusive: 39.8 µM [inhibitor, single point]",–
Fc1ccccc1Cn1c2[n+](c3ccc(C(F)(F)F)cc31)CCCCC2,–,inactive: 4.18% [at 11.3 µM]
CCOc1ccccc1NC(=O)C1CCN(c2nc(-c3ccc(OC)cc3)no2)CC1,"inconclusive: 0.708 µM [inhibitor, partial curve, poor fit]",–
O=C(c1ccco1)N1CCN(CC(O)COc2ccc3oc4ccccc4c3c2)CC1 (centres undefined),"inconclusive: 28.2 µM [inhibitor, partial curve, poor fit]",–
O=C(CSC(=S)N1CCCCC1)c1ccccc1,–,inconclusive: -53.6% [inhibitor]
CCn1c2ccccc2c2cc(NC(=O)CSc3nnc(-c4cccc(C)c4)o3)ccc21,"inconclusive: 22.4 µM [inhibitor, partial curve, poor fit]",–
COc1nc(-c2ccc(Cl)cc2)ccc1-c1noc(-c2cccs2)n1,"inconclusive: 35.5 µM [inhibitor, partial curve, poor fit]",–
O=C(N/N=C/C=C/c1ccccc1)c1cc2c(ccc3ccccc32)o1,"inconclusive: 21.2 µM [inhibitor, single point]",–
CN1CCN(C(=O)CCCN2C(=O)/C(=C/c3cccc(Br)c3)SC2=S)CC1,"inconclusive: 39.8 µM [inhibitor, single point]",–
O=C(CNC1CCCC1)Nc1ccc(N2CCCCCC2)cc1,inactive,–
O=C1c2ccccc2-c2onc3ccc(NCc4ccco4)c1c23,"inconclusive: 12.6 µM [inhibitor, partial curve, poor fit]",–
Cc1cccnc1NC(=O)c1sc2ccccc2c1Cl,inactive,–
O=C(/C=C/c1ccc(Br)cc1)c1ccc(NC2=NCCCS2)cc1,"inconclusive: 35.5 µM [inhibitor, single point]",–
